# The full ranking holds about 33,000 sequences; the median of “E-score (-0.5 to 0.5)” is about -0.054, and the highest 2% start at about 0.35. This is one part of the list.
# Target: T1, Stb5 (UniProt P38699)
# T1 sequence: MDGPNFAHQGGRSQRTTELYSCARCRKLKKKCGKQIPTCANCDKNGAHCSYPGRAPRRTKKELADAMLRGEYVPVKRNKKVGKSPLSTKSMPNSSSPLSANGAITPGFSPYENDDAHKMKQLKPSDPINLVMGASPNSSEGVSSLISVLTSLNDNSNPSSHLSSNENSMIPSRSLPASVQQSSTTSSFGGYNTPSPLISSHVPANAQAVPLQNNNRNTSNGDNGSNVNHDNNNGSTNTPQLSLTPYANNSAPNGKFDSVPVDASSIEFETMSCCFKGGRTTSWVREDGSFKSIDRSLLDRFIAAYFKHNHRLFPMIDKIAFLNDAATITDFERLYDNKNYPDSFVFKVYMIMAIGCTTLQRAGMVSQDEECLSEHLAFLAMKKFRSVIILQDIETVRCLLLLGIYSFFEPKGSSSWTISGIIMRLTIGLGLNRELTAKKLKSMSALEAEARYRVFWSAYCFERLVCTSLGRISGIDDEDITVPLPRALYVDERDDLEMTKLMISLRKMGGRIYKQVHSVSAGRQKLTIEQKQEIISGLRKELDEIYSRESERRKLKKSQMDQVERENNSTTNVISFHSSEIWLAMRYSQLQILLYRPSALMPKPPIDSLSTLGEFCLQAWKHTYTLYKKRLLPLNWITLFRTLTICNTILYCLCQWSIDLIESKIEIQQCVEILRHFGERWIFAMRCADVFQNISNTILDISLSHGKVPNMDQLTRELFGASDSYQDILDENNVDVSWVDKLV
# Test: PBM E-score (8-mer binding enrichment) (E-score (-0.5 to 0.5)); higher = stronger / more preferred TF binding; most listed sequences are background and not binding sites
# Conditions: protein concentration: 200 nM; construct: GST-full length
# In short: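 Bound GST-tagged yeast transcription factors, applied at about 100-200 nM to double-stranded universal all-10-mer Agilent arrays, were detected with fluorescent anti-GST. Scans were normalised with masliner. A modified Wilcoxon-Mann-Whitney statistic, the E-score, was assigned to each ungapped eight-base word pooled with its reverse complement by the Universal PBM Analysis Suite.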
row,Sequence,PBM E-score
1,ATAATTCC,0.256
2,GTCCGGGA,0.192
3,ATCTCACA,-0.305
4,CCAATATC,-0.0804
5,ACCTACCC,0.0642
6,CGCATGAC,-0.106
7,TCGTGCAA,-0.175
8,CCGGCTTC,0.15
9,AAGTTGAT,-0.0616
10,GAGGGTGC,-0.0689
11,CATAATCA,-0.0813
12,CCTCTCTC,-0.203
13,AGTGTCTG,-0.294
14,ACTGATGC,-0.0507
15,ACTTATTC,0.142
16,ACCCGGTC,0.204
17,AAGCTTCG,-0.036
18,AAATTCCA,-0.117
19,GCACGGCA,0.145
20,TCAGAGCA,-0.227
21,GGGAGGTA,-0.0504
22,ATATGATA,0.0733
23,ACGCTGTG,-0.0747
24,GACTTAAC,0.162
25,ACTCAAAT,-0.142

row,Sequence,PBM E-score
1,ACAACAAC,-0.241
2,AATTAATA,0.064
3,CGCTCCAG,0.13
4,GAGTGCGC,0.1
5,ATCACGTG,-0.114
6,ATAATATA,0.154
7,AATCAAGC,-0.0303
8,AGACACCC,-0.231
9,CAACTTAC,-0.0649
10,CTGGCCCA,-0.253
11,AGGTGTCG,0.0858
12,AGCCGCTA,0.173
13,CATCAGGA,0.0158
14,GTAGCGGA,0.292
15,ATTGGCAA,-0.286
16,CGTCGGGA,0.337
17,CTGGTCGC,-0.00608
18,ATTTCCCG,0.262
19,ACGCGGAT,0.13
20,ATCACGCA,-0.0917
21,AAAGCGCT,0.117
22,TAGAGGAA,-0.265
23,AAAGGTCT,-0.0618
24,AGAGTGTA,-0.142
25,ATAGAACA,-0.145

row,Sequence,PBM E-score
1,CCTGTTAA,-0.32
2,CGTCACTA,-0.00179
3,AGCGGCAG,0.276
4,CCAATCAG,-0.374
5,ATGTACTA,-0.0681
6,ACCTTTAG,0.0714
7,CCGTGTTA,0.141
8,ACTAAGGC,0.0655
9,TCACGTAA,-0.272
10,GTCGATTA,-0.276
11,CGGCCAAA,0.129
12,CACCGCTA,0.388
13,ATTGTTAA,0.00646
14,CTGTTAAG,-0.199
15,GCTTGACA,-0.0722
16,AACTGTGT,-0.0455
17,AGCAAGCA,-0.263
18,GACGCTGA,-0.023
19,GCCCCCGC,0.256
20,ACGGCCAT,0.276
21,CGAGCAAC,0.0946
22,TCCATGAA,0.102
23,GGTTACCA,0.098
24,CTCGTACA,-0.178
25,TAGTTTGA,0.00391

row,Sequence,PBM E-score
1,TATTCACA,0.00428
2,CGGGAATC,0.188
3,GCTGGGCC,-0.0948
4,CACTCGCG,0.0937
5,GAGAAACC,0.116
6,ACCTATGG,-0.128
7,CTATCCCA,-0.183
8,AGACGAGG,-0.101
9,CCTCCTTA,-0.215
10,AGTAATTA,-0.159
11,ACTGTTCG,-0.0486
12,ATAACGCC,0.359
13,AACTCTTC,-0.102
14,TAAACGTA,-0.195
15,ATCGCGTA,-0.0676
16,ACGTGTGA,-0.186
17,AACCGGTG,0.306
18,CAACTGAG,-0.139
19,CGGTCAAC,0.152
20,GACAACCA,-0.00208
21,TAGCGCCA,0.00668
22,ACTTCAGA,-0.112
23,AGACGCCG,0.399
24,GAAGCCGA,0.0721
25,TAGGGATA,-0.0265

row,Sequence,PBM E-score
1,GGCATCGA,-0.171
2,CGGCCCAC,-0.00644
3,CCCTCCGC,0.0578
4,AATACACA,-0.143
5,ATGTGGAA,-0.129
6,GGAATAAC,0.177
7,CTGGTTAA,-0.102
8,CCTCTTAG,0.0232
9,CGGCACCC,0.11
10,CCGGTCAA,0.26
11,CATCGCGA,0.00349
12,CAAGACTC,-0.152
13,AGCTCAAA,-0.0103
14,GGAGGAAC,-0.0563
15,CGGTCAAA,0.24
16,ATAAGGCG,-0.00531
17,AGGCTTGA,-0.263
18,ATCTCAAG,-0.22
19,CGACGTGA,0.0691
20,ATAGTTGC,-0.0188
21,CAGGTGGC,-0.216
22,TACAGAAA,-0.202
23,CGTAGTCA,-0.211
24,CGACCTCC,0.0816
25,ACTTGAAT,-0.205

row,Sequence,PBM E-score
1,ACCAGCCG,0.00985
2,GAGGATAC,-0.184
3,CCAGTTCA,-0.0663
4,AATCATTA,-0.121
5,CCTCAGTA,-0.247
6,AGTCAATG,-0.0736
7,CTAAATAG,-0.0747
8,GATCGGGA,0.251
9,CCTGTGTC,0.0263
10,AGGGGAAG,-0.27
11,CGTAGTAC,0.0304
12,ATCAGCGC,0.231
13,GCCTCCGA,0.124
14,AGACACTG,-0.3
15,CCGCTCAA,0.219
16,CTGCATCA,-0.327
17,CCTACTTC,-0.244
18,AAAGGGGT,-0.188
19,AACAACGG,0.24
20,ATATACAC,-0.0737
21,GTACCGAA,0.145
22,ACCGTACC,0.109
23,GGGATCGA,-0.029
24,ACGAATTC,-0.1
25,CGCACCAA,0.0669

row,Sequence,PBM E-score
1,CTGGGAGA,-0.253
2,CAGCCCCC,-0.277
3,AGCTGGGG,-0.232
4,CCCCCGGC,0.203
5,GATCCCGA,0.247
6,ATATGGAG,0.207
7,GTAAGGCA,-0.15
8,AGGTCCCG,0.196
9,GTCCATCA,-0.0772
10,CACGGCTG,-0.146
11,GACAACTC,-0.0305
12,CCATGGTC,-0.179
13,ACCCCCTC,-0.265
14,ATGCAGAG,-0.227
15,ATGGCGAA,-0.099
16,GGCTGAGA,-0.116
17,CGTCCTCA,-0.0976
18,AAAAACAA,0.151
19,AGCCTTTG,-0.217
20,ACAGCCGA,0.0858
21,AACGGAAT,0.209
22,CGAGCACA,-0.0834
23,CGCGCTAA,0.0608
24,GAATGTAA,0.0823
25,GCCCGGCC,0.233

row,Sequence,PBM E-score
1,ATTCCAAC,-0.209
2,CGTGCGTA,0.00379
3,GCCAACCA,0.00482
4,AGATTAGG,-0.0761
5,AGCCGGAA,0.186
6,AAACATTC,-0.247
7,GGCGGATA,0.257
8,CGACGACC,0.197
9,AAGGTTAA,-0.218
10,CGCCTTCC,0.0626
11,ACGTAGCA,-0.123
12,CCACATTC,-0.0853
13,GCAGATCC,-0.0324
14,AGGGGGCC,-0.234
15,CATTAGCA,-0.0385
16,AGGTGACT,-0.279
17,CTTTCCGC,0.0536
18,TGACCTAA,-0.117
19,GATAGACA,-0.354
20,CCAGTCGG,0.259
21,ATCCTGTG,-0.173
22,ATTAGTAC,0
23,AAGTATGG,-0.13
24,ATGGGCGG,0.265
25,AATAATTA,-0.154

row,Sequence,PBM E-score
1,CTAAGATC,0.00661
2,GCGTCCGA,0.191
3,GGTAGGTA,-0.00892
4,AGCGTTTC,-0.067
5,CCCAATAG,-0.275
6,AGATGAGG,-0.159
7,AGGAGTGC,-0.0148
8,GAAACCTC,-0.0112
9,ACAGAAAC,-0.122
10,CGTATCTA,-0.0931
11,CAGGTAAC,-0.158
12,CCCTCAAC,-0.125
13,CGATATCG,0.143
14,CCATGTAG,0.0296
15,ATCTGACA,-0.302
16,AGCTCTCG,-0.155
17,AATGCCCT,-0.168
18,AAGAAAGA,-0.0812
19,TGATCGCA,-0.14

# Source: the supplement of paper PMC3334620
